{
  "source": "paper PMC12040169",
  "about": "(PLOS Biology, 2025)",
  "note": "This is one part of the list.",
  "data": [
    {"test_system": "T1, C. trachomatis L2/434/Bu expressing GFP (CTL2-GFP)", "T1 construct": "L2/434/Bu GFP intracellular growth in HeLa cells", "design": "species or system HeLa; C. trachomatis total inclusion area by high-content imaging, normalised to DMSO", "settings": "total inclusion area; 28.5 h, 10 µM; inhibitor", "outline": "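Bulk GFP and resorufin signals were read first. Wells were then fixed, stained with Hoechst and imaged to detect GFP inclusions and host nuclei. MICs followed the previously described calculation.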", "values": [
      {"smiles": "CCOC(=O)c1c(NC(=O)CSc2nnc[nH]2)sc2c1CCCC2", "note": "[CBK265999]", "% of control remaining": 128.705},
      {"smiles": "CN(C)c1nc2ccc(OCCN3CCOCC3)cc2s1", "note": "[CBK261135]", "% of control remaining": 104.123},
      {"smiles": "O=C(c1ccc2cc[nH]c2c1)N1CCN(CC2CCOC2)CC1", "note": "(centres unmarked) [CBK305541]", "% of control remaining": 61.4713},
      {"smiles": "CCCn1c(=N)n(CCOc2cccc(C)c2)c2ccccc21", "note": "[CBK264746B]", "% of control remaining": 82.5259},
      {"smiles": "C=C(C)Cn1c(SCC(C)C)nnc1-c1ccccc1C(=O)NC(C)C", "note": "[CBK200096]", "% of control remaining": 86.27},
      {"smiles": "O=C(O)CC(C(=O)N1CCOCC1)N1CCCCC1", "note": "(centres unmarked) [CBK287074]", "% of control remaining": 88.7519},
      {"smiles": "COC(=O)c1ccc2c(=O)n(CCc3ccc(S(N)(=O)=O)cc3)c(=S)[nH]c2c1", "note": "[CBK268238]", "% of control remaining": 75.0185},
      {"smiles": "O=C(CSc1nnc(-c2ccccc2)c(-c2ccccc2)n1)Nc1ccc([N+](=O)[O-])cc1", "note": "[CBK263406]", "% of control remaining": 79.5455},
      {"smiles": "CCN1CCN(c2ccc(C(=O)OC)cc2NC(=O)c2ccccc2C)CC1", "note": "[CBK269902]", "% of control remaining": 79.5478},
      {"smiles": "COc1ccccc1CNC(=O)c1ccc(Cl)c(S(=O)(=O)N2CCOCC2)c1", "note": "[CBK267060]", "% of control remaining": 112.798},
      {"smiles": "CC1=C[C@@H](CNS(C)(=O)=O)[C@H](C(C)C)C[C@H]1Cc1nnc(-c2ccccc2F)o1", "note": "[CBK289226]", "% of control remaining": 92.9684},
      {"smiles": "COc1cc(NC(=O)c2cc([N+](=O)[O-])ccc2N2CCN(C)CC2)c2ncccc2c1", "note": "[CBK263034]", "% of control remaining": 94.0603},
      {"smiles": "O=C1CC2(CCN(C(=O)c3ccc4cc[nH]c4c3)CC2)Oc2ccc(CN3CCOCC3)cc21", "note": "[CBK169469]", "% of control remaining": 122.671},
      {"smiles": "COc1cc(OC)c(NC(=O)c2c(-c3ccccc3)noc2C)cc1Cl", "note": "[CBK268167]", "% of control remaining": 84.7159},
      {"smiles": "Cc1nc(C)c(C(=O)Nc2ccc3c(c2)CN(Cc2ccccc2)C3)o1", "note": "[CBK281835]", "% of control remaining": 85.6737},
      {"smiles": "O=C1NCCCC12CCN(Cc1ccc(F)cc1)CC2", "note": "[CBK285345]", "% of control remaining": 81.6055},
      {"smiles": "COc1ccc(-c2ccnc3[nH]c(=O)ccc23)cc1C", "note": "[CBK073726]", "% of control remaining": 113.601},
      {"smiles": "CC(C)(C)C(=O)N[C@H]1CO[C@H]2[C@@H]1OC[C@@H]2Nc1nccc(C2CCCC2)n1", "note": "[CBK289530]", "% of control remaining": 99.1292},
      {"smiles": "Cc1nc(C)n(CC(=O)N[C@H]2C3CCCCC3[C@@H]2c2ccccc2)n1", "note": "(some centres unmarked) [CBK285128]", "% of control remaining": 94.114},
      {"smiles": "CSc1ncc(CNC(=O)CC2CCc3ccccc32)n1C", "note": "(centres unmarked) [CBK307450]", "% of control remaining": 70.2802},
      {"smiles": "COc1cc(CN2CCC3(CC2)CN(S(C)(=O)=O)c2ccccc23)cc(OC)c1OC", "note": "[CBK126669]", "% of control remaining": 110.186},
      {"smiles": "CC(C)(C)c1ccc(S(=O)(=O)N2CCNC(=O)C2)cc1", "note": "[CBK051238]", "% of control remaining": 92.0125},
      {"smiles": "O=S1(=O)N=C(N2CCN(Cc3ccc4c(c3)OCO4)CC2)c2ccccc21", "note": "[CBK266064]", "% of control remaining": 75.8817},
      {"smiles": "O=C(O)Cn1cc(C(C(=O)O)N2CCN(c3ccccc3)CC2)c2ccccc21", "note": "(centres unmarked) [CBK286625]", "% of control remaining": 97.1376},
      {"smiles": "Cc1ccnc(Nc2nc3ccccc3o2)n1", "note": "[CBK022772]", "% of control remaining": 81.7183},
      {"smiles": "CC(C)(C)c1cc(C(c2ccccc2O)N2CCOCC2)cc(C(C)(C)C)c1O", "note": "(centres unmarked) [CBK262998]", "% of control remaining": 48.5961},
      {"smiles": "Cc1ccc(C)c2c1CCCC2N1CCC(NS(C)(=O)=O)CC1", "note": "(centres unmarked) [CBK304038]", "% of control remaining": 50.2039},
      {"smiles": "c1csc(CN2CCC(c3cc4nccnc4[nH]3)CC2)c1", "note": "[CBK281520]", "% of control remaining": 111.877},
      {"smiles": "CC(=O)Nc1ccccc1-c1nc2ccccc2o1", "note": "[CBK287568]", "% of control remaining": 114.354},
      {"smiles": "CN(CCN1CCCCC1)C(=O)c1cc2ccc(N(C)C)cc2[nH]1", "note": "[CBK281830]", "% of control remaining": 118.205},
      {"smiles": "Cc1ccc(-c2cc(C(=O)N(C)CC3(C)COC3)[nH]n2)cc1", "note": "[CBK281717]", "% of control remaining": 117.949},
      {"smiles": "COc1ccc(C(=O)N2CCC3(CCCN(C(=O)c4cscn4)C3)C2)cc1OC", "note": "(centres unmarked) [CBK131659]", "% of control remaining": 72.5192},
      {"smiles": "O=C(O)CSc1nc(O)c2c(-c3ccccc3)csc2n1", "note": "[CBK268067]", "% of control remaining": 117.908},
      {"smiles": "Cc1ccc(C2(O)CCN(Cc3c(C)nc4sccn34)CC2)cc1", "note": "[CBK282734]", "% of control remaining": 103.51},
      {"smiles": "O=C(NC(c1ccc(-c2ccccc2)cc1)c1cnccn1)C1CCN(C/C=C/c2ccccc2)CC1", "note": "(centres unmarked) [CBK147984]", "% of control remaining": 82.3731},
      {"smiles": "Cc1ccc(NC(=O)COc2ccccc2/C=C/C(=O)O)cc1C", "note": "[CBK287026]", "% of control remaining": 108.695},
      {"smiles": "COc1ccc(C)cc1N1CCCN(c2cc(C)ccc2OC)C1=O", "note": "[CBK006937]", "% of control remaining": 9.427},
      {"smiles": "COc1cccc2sc(NC(=O)c3ccc4ncsc4c3)nc12", "note": "[CBK287365]", "% of control remaining": 140.648},
      {"smiles": "S=C1C=C(c2ccccc2)Nc2ccccc2N1", "note": "[CBK288438]", "% of control remaining": 66.1636},
      {"smiles": "CCNC(=O)c1ccc(-c2ccc(C(=O)N(C)C)cc2)nc1", "note": "[CBK158361]", "% of control remaining": 95.9023},
      {"smiles": "COc1ccc(Cl)cc1NC(=O)CCN1CCN(C)CC1", "note": "[CBK278177C]", "% of control remaining": 111.223},
      {"smiles": "CCCCn1c(SCCC(=O)Nc2ccccc2C(=O)c2ccccc2)n[nH]c1=O", "note": "[CBK296693]", "% of control remaining": 123.079},
      {"smiles": "Cc1cc(C)cc(NC(=O)c2ccccc2NS(=O)(=O)c2cccc(Cl)c2)c1", "note": "[CBK113887]", "% of control remaining": 88.8931},
      {"smiles": "CCN1CCN(c2ccc(NC(=O)c3ccc(OCc4ccccc4)cc3)cc2Cl)CC1", "note": "[CBK266683]", "% of control remaining": 98.3978},
      {"smiles": "CC(C)(C)NC(=O)Cn1cncc1-c1ccc2c(c1)CC(C)(C)O2", "note": "[CBK281980]", "% of control remaining": 97.0655},
      {"smiles": "Fc1ccc(-c2cccc(Nc3ccc(Oc4ccccc4)cc3)n2)cc1Cl", "note": "[CBK037699]", "% of control remaining": 103.048},
      {"smiles": "O=C(O)c1ccccc1CSc1ccccn1", "note": "[CBK270213]", "% of control remaining": 112.315},
      {"smiles": "O=C(c1cccc(-c2cc3ccccc3oc2=O)c1)N1CCN(c2ccc([N+](=O)[O-])cc2Cl)CC1", "note": "[CBK269704]", "% of control remaining": 64.7342},
      {"smiles": "O=C(CN1CCC2(CC1)CN(C(=O)CO)c1ccccc12)Nc1ccc(F)c(Cl)c1", "note": "[CBK131509]", "% of control remaining": 73.3321},
      {"smiles": "C[C@H](Nc1nc(-c2cccc(-c3ccccc3)c2)cnc1N)c1ccccc1", "note": "[CBK063752]", "% of control remaining": 95.6442}
    ]}
  ]
}
